Several values for one entry are separate records, joined by “and”; a condition that tells them apart may be missing. Equal entries are not always repeated. The campaign covered roughly 270,000 compounds. About 620 (0.23%) were called active. Inconclusive results, whose numbers are uncertain, are shown with a selection of clear calls. Calls follow the shape of the dose curve; as a rule, active = well fitted inhibition curve with a large enough effect in the polarisation, with a control signal flat (not every such curve was filed as active); inconclusive = small, poorly fitted or top-dose-only effect, or effect the other way, or a change in a side signal; inactive = no such curve, though single readings can be large or run the other way; the % refers to the polarisation. Potencies beside an inconclusive call are fits to weak or partial responses and may not hold up. A note “side channel” means that the fit belongs to a control or component signal, not to the main read-out.
biological target: Menin (Homo sapiens) (UniProt O00255); assay: qHTS Assay for Inhibitors Targeting the Menin-MLL Interaction in MLL Related Leukemias: Competition With Texas Red Labeled MLL-derived Mutant Peptide; details: fluorescence polarization; FP activity change, negative = inhibition: at 61.6 µM (top of the series); as to FP activity change, negative = inhibition: % of control where 0% means no effect
Chain of UniProt O00255 (O00255 whole entry, looked up): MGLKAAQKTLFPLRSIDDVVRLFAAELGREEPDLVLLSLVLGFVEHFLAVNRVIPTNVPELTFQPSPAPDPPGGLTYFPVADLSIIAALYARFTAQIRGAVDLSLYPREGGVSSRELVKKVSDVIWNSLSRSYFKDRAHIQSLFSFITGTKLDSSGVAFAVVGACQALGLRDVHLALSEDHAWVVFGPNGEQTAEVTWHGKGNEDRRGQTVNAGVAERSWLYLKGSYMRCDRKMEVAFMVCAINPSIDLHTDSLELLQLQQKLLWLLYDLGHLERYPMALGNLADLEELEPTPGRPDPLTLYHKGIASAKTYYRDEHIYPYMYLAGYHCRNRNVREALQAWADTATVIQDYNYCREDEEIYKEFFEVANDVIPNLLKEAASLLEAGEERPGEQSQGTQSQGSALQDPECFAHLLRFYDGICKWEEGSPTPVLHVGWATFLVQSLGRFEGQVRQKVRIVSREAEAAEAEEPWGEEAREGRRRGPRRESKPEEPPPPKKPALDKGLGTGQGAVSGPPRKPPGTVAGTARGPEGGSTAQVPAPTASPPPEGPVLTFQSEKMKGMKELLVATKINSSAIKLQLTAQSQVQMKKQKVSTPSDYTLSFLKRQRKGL
Potency is read from the fitted curve at half-maximal effect; tags tell the direction and shape of the fitted curve or compound fluorescence and quenching.

| SMILES | Potency | FP activity change, negative = inhibition |
| --- | --- | --- |
| Cc1ccc(-c2cn3cccnc3n2)cc1NC(=O)c1cccs1 | inconclusive: 20 µM [inhibitor, single point] |  |
| Cc1oc(-c2ccccc2)nc1Cn1cccc1C1=NC(c2ccccc2)CO1 (centres undefined) | inconclusive: 15.8 µM [fluorescent, side channel, partial curve] |  |
| CCN(CC)S(=O)(=O)c1cc(OC)ccc1N=Nc1ccc(O)c2ncccc12 | inconclusive: 7.94 µM [quencher, side channel, partial curve] |  |
| COc1cc(/C=C2\S/C(=N/S(=O)(=O)c3ccccc3)NC2=O)c([N+](=O)[O-])cc1OC | inconclusive: 39.8 µM [quencher, side channel, single point] |  |
| Cc1ccc(OCCN2C(=O)C(=O)c3cccc(C)c32)cc1 | inconclusive: 8.91 µM [fluorescent, side channel, full curve, poor fit] |  |
| COc1ccccc1NS(=O)(=O)c1cc(NC(=O)c2cccs2)ccc1N1CCCCC1 | inconclusive: 11.2 µM [inhibitor, partial curve] |  |
| c1ccc(-c2csc(Nc3ccccn3)n2)cc1 | inconclusive: 22.4 µM [quencher, side channel, single point] |  |
| COC(=O)c1cc2n(n1)CCN(Cc1cccc(OC)c1)C2=O | inactive |  |
| Cc1ccc(CC(=O)N2CCN(c3cccc(C(F)(F)F)c3)CC2)cc1 | inconclusive: 15.8 µM [fluorescent, side channel, partial curve] |  |
| Cc1ccc(N(CC(=O)NC2CCCC2)C(=O)CCC(=O)Nc2ccccn2)cc1 | inconclusive: 28.2 µM [fluorescent, side channel, single point] |  |
| CCCCOc1ccc(Nc2cc(Cl)ccc2C(=O)O)cn1 | inconclusive: 17.8 µM [quencher, side channel, partial curve] |  |
| COc1ccc(O[C@H]2C=C[C@@H](c3ccccc3)O[C@H]2CO/N=C\C[C@@H]2C=C[C@H](OC(C)=O)[C@H](COC(C)=O)O2)cc1 |  | inactive: -2.39% [at 11.7 µM] |
| COc1cc2c(cc1NC(=O)C(C)Sc1nc3ccccc3n1C)oc1ccccc12 (centres undefined) | inconclusive: 5.62 µM [inhibitor, full curve, poor fit] |  |
| O=C([C@@H]1Cc2ccccc2CN1)N1CCN(Cc2ccccc2)CC1 | inconclusive: 11.2 µM [inhibitor, partial curve, poor fit] |  |
| COC(=O)c1ccc(NC(=O)CCn2cccc2)cc1 | inconclusive: 39.8 µM [inhibitor, single point] |  |
| COc1ccc(-c2nnc3c4ccccc4c(C)nn23)cc1S(=O)(=O)N1CCN(CCO)CC1 | inconclusive: 17.8 µM [inhibitor, partial curve] |  |
| N#Cc1ccccc1CN1C(=O)S/C(=C/c2cccn2-c2cccc(C(=O)O)c2)C1=O | inconclusive: 28.2 µM [quencher, side channel, partial curve] |  |

| SMILES | Potency | FP activity change, negative = inhibition |
| --- | --- | --- |
| CN(C)S(=O)(=O)c1cccc(NC(=O)c2cccc(NS(=O)(=O)c3ccccc3)c2)c1 | inconclusive: 14.1 µM [quencher, side channel, partial curve] |  |
| CC(C)CC(NC(=O)C1CCCN1C(=O)[C@@H](C)NC(=O)OCc1ccccc1)C(=O)NCC(N)=O (some centres undefined) | inconclusive: 8.91 µM [inhibitor, partial curve, poor fit] |  |
| O=C(O)c1cccc(N2CCCC2)c1 | inconclusive: 15.8 µM [inhibitor, single point] |  |
| O=C(O)c1ccccc1-c1c2cc(Br)c(=O)c(Br)c-2oc2c(Br)c(O)c(Br)cc12 | inconclusive: 708 nM [fluorescent, side channel, full curve] and inconclusive: 562 nM [fluorescent, side channel, full curve] |  |
| C#CCOCCOCCOCCNc1nc(N2CCN(C(=O)[C@H](Cc3ccc(O)cc3)n3cc([C@@H](N)CC(C)C)nn3)CC2)nc(N2CCN(C(=O)[C@H](Cc3ccc(O)cc3)n3cc([C@@H](N)CC(C)C)nn3)CC2)n1 | inconclusive: 10 µM [fluorescent, side channel, partial curve] |  |
| COCCNC(=O)CCn1nc(-c2ccc(Cl)cc2)ccc1=O | inconclusive: 20 µM [inhibitor, partial curve] |  |
| Oc1cccc2ccc(/C=C/c3ccccc3Cl)nc12 | inconclusive: 25.1 µM [quencher, side channel, partial curve] |  |
| O=C(O)c1cc(-c2ccc(/C=C3\NC(=O)N(c4ccc(Cl)cc4)C3=O)o2)ccc1Cl | inactive |  |
| Cc1c(NC(=O)CSc2nnc(C(C)Oc3ccc(Cl)cc3)n2-c2ccccc2)c(=O)n(-c2ccccc2)n1C (centres undefined) | inconclusive: 5.01 µM [fluorescent, side channel, partial curve] |  |
| Cc1ccc(NC(=O)c2cc(-c3ccc(C)o3)nc3ccccc23)cc1 | inconclusive: 12.6 µM [quencher, side channel, single point] |  |
| COC(=O)c1ccc(C(=O)NC2CCCc3c2cnn3-c2ccccc2F)nc1 (centres undefined) | inconclusive: 1 µM [fluorescent, side channel, full curve, poor fit] |  |
| Cc1ccccc1-n1c(=O)cc(N2CCc3ccccc32)[nH]c1=O | inconclusive: 25.1 µM [quencher, side channel, single point] |  |
| O=c1c(-c2ccc(Cl)cc2)c[nH]n1-c1ccccc1 | inconclusive: 31.6 µM [quencher, side channel, partial curve] |  |
| COc1cccc(-c2ccc3ncnc(NCc4ccc(OC)cc4OC)c3c2)c1 | inactive |  |
| O=C(CNC(=O)c1ccccc1)N=Nc1c(O)[nH]c2ccc(Br)cc12 | inconclusive: 17.8 µM [quencher, side channel, single point] |  |
| O=C(Nc1ccccc1Cl)NC1(C(=O)N2CCC(O)CC2)CCCCC1 | inconclusive: 28.2 µM [quencher, side channel, single point] |  |
| COc1cccc(/C=C/C(=O)Nc2ccc3c(c2)OCCO3)c1OC | inconclusive: 11.2 µM [quencher, side channel, partial curve] |  |

From PubChem BioAssay AID1768 (National Center for Advancing Translational Sciences (NCATS), 2009)
